Measured values published in the supplement of paper PMC4967469.

Key:
Assay in all cases: Viability of human cancer cell lines after 72 h of drug (GDSC screen)
LFM-A13 = compound: C/C(O)=C(\C#N)C(=O)Nc1cc(Br)ccc1Br [LFM-A13]; conditions: top dose 16 µM; top dose inferred
Procedure: (§1)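 Human cancer cell lines in 384-well plates, medium with 10% serum, drug for 72 h over a 256-fold dose range (nine 2-fold or five 4-fold steps up to the top dose). Adherent lines were fixed and stained with the nucleic acid dye Syto60, suspension lines read with resazurin; signal relative to control wells, capped at 0 and 100%. One two-parameter sigmoid per drug and line, fitted in a mixed model over all curves with the slope shared within a line.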

TW-37 = compound: CC(C)c1ccccc1Cc1cc(C(=O)Nc2ccc(S(=O)(=O)c3ccccc3C(C)(C)C)cc2)c(O)c(O)c1O [TW-37]; conditions: top dose 5 µM
Procedure: as §1

Bicalutamide = compound: CC(O)(CS(=O)(=O)c1ccc(F)cc1)C(=O)Nc1ccc(C#N)c(C(F)(F)F)c1 [Bicalutamide]; conditions: top dose inferred
Procedure: as §1

AUY922 = compound: CCNC(=O)c1noc(-c2cc(C(C)C)c(O)cc2O)c1-c1ccc(CN2CCOCC2)cc1 [AUY922]; conditions: top dose 0.256 µM; top dose inferred
Procedure: as §1

KIN001-270 = compound: Cc1ccc(Nc2cc(-c3cccc(N4C(=O)c5ccccc5C4=O)c3)ncn2)cc1NS(C)(=O)=O [KIN001-270]; conditions: top dose 20 µM; top dose inferred
Procedure: as §1

Nilotinib = compound: Cc1cn(-c2cc(NC(=O)c3ccc(C)c(Nc4nccc(-c5cccnc5)n4)c3)cc(C(F)(F)F)c2)cn1 [Nilotinib]; conditions: top dose 2 µM
Procedure: as §1

Gemcitabine = compound: Nc1ccn([C@@H]2O[C@H](CO)[C@@H](O)C2(F)F)c(=O)n1 [Gemcitabine]; conditions: top dose 1.024 µM
Procedure: as §1

T0901317 = compound: O=S(=O)(c1ccccc1)N(CC(F)(F)F)c1ccc(C(O)(C(F)(F)F)C(F)(F)F)cc1 [T0901317]; conditions: top dose 10.24 µM; top dose inferred
Procedure: as §1

MP470 = compound: S=C(NCc1ccc2c(c1)OCO2)N1CCN(c2ncnc3c2oc2ccccc23)CC1 [MP470]; conditions: top dose 20 µM; top dose inferred
Procedure: as §1

[1] = top dose 1.024 µM, screen: GDSC drug entry 150
[2] = top dose 10 µM, screen: GDSC drug entry 1502

| Cell Line | AUC (LFM-A13) | IC50 (LFM-A13) [nM] | AUC (TW-37) | IC50 (TW-37) [nM] | AUC (Bicalutamide; [1]) | IC50 (Bicalutamide; [1]) [nM] | AUC (Bicalutamide; [2]) | IC50 (Bicalutamide; [2]) [nM] | AUC (AUY922) | IC50 (AUY922) [nM] | AUC (KIN001-270) | IC50 (KIN001-270) [nM] | AUC (Nilotinib) | IC50 (Nilotinib) [nM] | AUC (Gemcitabine) | IC50 (Gemcitabine) [nM] | AUC (T0901317) | IC50 (T0901317) [nM] | AUC (MP470) | IC50 (MP470) [nM] |
| --- | --- | --- | --- | --- | --- | --- | --- | --- | --- | --- | --- | --- | --- | --- | --- | --- | --- | --- | --- | --- |
| M059J (glioma, adherent) | 0.983 | > 16000 | 0.698 | 1180 | 0.985 | > 1020 | 0.967 | > 10000 | 0.511 | 17.1 | 0.93 | > 20000 | 0.985 | > 2000 | 0.309 | 17.7 | 0.985 | > 10200 | 0.975 | > 20000 |
| K2 (melanoma, adherent) | 0.976 | > 16000 | 0.666 | 1040 | 0.98 | > 1020 | 0.975 | > 10000 | 0.77 | 127 | 0.982 | > 20000 | 0.96 | > 2000 | 0.673 | 225 | 0.978 | > 10200 | 0.868 | > 20000 |
| MES-SA (uterus, adherent) | 0.991 | > 16000 | 0.318 | 106 | 0.991 | > 1020 | 0.99 | > 10000 | 0.478 | 14 | 0.991 | > 20000 | 0.992 | > 2000 | 0.176 | 8.34 | 0.981 | > 10200 | 0.962 | > 20000 |
| JURL-MK1 (chronic myeloid leukaemia, suspension) | 0.977 | > 16000 | 0.538 | 396 | 0.984 | > 1020 | 0.964 | > 10000 | 0.553 | 22.3 | 0.971 | > 20000 | 0.039 | < 7.81 | 0.215 | 9.37 | 0.965 | > 10200 | 0.905 | > 20000 |
| T98G (glioma, adherent) | 0.982 | > 16000 | 0.631 | 696 | 0.99 | > 1020 | 0.972 | > 10000 | 0.635 | 36.6 | 0.976 | > 20000 | 0.902 | > 2000 | 0.746 | 304 | 0.974 | > 10200 | 0.962 | > 20000 |
| G-402 (soft tissue, adherent) | 0.947 | > 16000 | 0.419 | 174 | 0.977 | > 1020 | 0.945 | > 10000 | 0.581 | 28.7 | 0.951 | > 20000 | 0.877 | > 2000 | 0.168 | 4.15 | 0.956 | > 10200 | 0.892 | > 20000 |
| NCI-H2052 (mesothelioma, adherent) | 0.973 | > 16000 | 0.694 | 1290 | 0.98 | > 1020 | – | – | 0.67 | 54.6 | 0.981 | > 20000 | 0.982 | > 2000 | 0.633 | 166 | 0.973 | > 10200 | 0.981 | > 20000 |
| HMV-II (melanoma, adherent) | 0.975 | > 16000 | 0.483 | 278 | 0.982 | > 1020 | 0.979 | > 10000 | 0.38 | 6.92 | 0.975 | > 20000 | 0.935 | > 2000 | 0.242 | 9.51 | 0.951 | > 10200 | 0.925 | > 20000 |
| H2461 (mesothelioma, adherent) | 0.955 | > 16000 | 0.614 | 697 | 0.983 | > 1020 | 0.969 | > 10000 | 0.781 | 135 | 0.98 | > 20000 | 0.978 | > 2000 | 0.84 | 979 | 0.983 | > 10200 | 0.974 | > 20000 |
| HuP-T3 (pancreas, adherent) | 0.952 | > 16000 | 0.685 | 1160 | 0.977 | > 1020 | – | – | 0.474 | 13.3 | 0.972 | > 20000 | 0.982 | > 2000 | 0.564 | 99.5 | 0.982 | > 10200 | 0.927 | > 20000 |
| DK-MG (glioma, adherent) | 0.946 | > 16000 | 0.767 | 2810 | 0.952 | > 1020 | 0.956 | > 10000 | 0.705 | 81.6 | 0.975 | > 20000 | 0.959 | > 2000 | 0.969 | > 1020 | 0.978 | > 10200 | 0.966 | > 20000 |
| DMS-53 (small cell lung carcinoma, adherent) | 0.985 | > 16000 | 0.72 | 1390 | 0.988 | > 1020 | 0.981 | > 10000 | 0.802 | 137 | 0.971 | > 20000 | 0.988 | > 2000 | 0.835 | 740 | 0.981 | > 10200 | 0.307 | 342 |
| MOG-G-UVW (glioma, adherent) | 0.953 | > 16000 | 0.467 | 255 | 0.985 | > 1020 | 0.978 | > 10000 | 0.578 | 26 | 0.972 | > 20000 | 0.943 | > 2000 | 0.171 | 6.65 | 0.982 | > 10200 | 0.982 | > 20000 |
| FADU (head and neck, adherent) | 0.963 | > 16000 | 0.598 | 573 | 0.988 | > 1020 | – | – | 0.624 | 34.7 | 0.983 | > 20000 | 0.988 | > 2000 | 0.445 | 45.6 | 0.986 | > 10200 | 0.946 | > 20000 |

By IC50 is meant the dose at which the fit gives 50% viability; a fit beyond the top or the lowest dose is shown as a bound at that dose. For AUC the same curve is integrated over the 256-fold range of doses and scaled to a fraction; values near 1 show little effect. For some of these results: A top dose marked as inferred comes from the curve model; the source does not state it. For some of these results: An entry number marks a drug with two screens in the source, which often give different values.
